Experimental data reported in the supplement of paper PMC4166925.
± gives the standard deviation of the averaged measurements. Over roughly 33,000 sequences, “E-score (dimensionless, -0.5 to 0.5)” has its median near -0.049; the highest 2% begin near 0.37. Some of the results follow.

What follows are sequences tested on T1, PmTbr T-box DNA-binding domain (GST fusion) (assay: PBM E-score of 8-mer (E-score (dimensionless, -0.5 to 0.5)); Tbr is Tbrain of the sea star Patiria miniata (Pm) or the sea urchin Strongylocentrotus purpuratus (Sp); higher = stronger binding preference; most listed sequences are background and not binding sites). Settings: the construct has about 5 more residues each side.
T1 sequence: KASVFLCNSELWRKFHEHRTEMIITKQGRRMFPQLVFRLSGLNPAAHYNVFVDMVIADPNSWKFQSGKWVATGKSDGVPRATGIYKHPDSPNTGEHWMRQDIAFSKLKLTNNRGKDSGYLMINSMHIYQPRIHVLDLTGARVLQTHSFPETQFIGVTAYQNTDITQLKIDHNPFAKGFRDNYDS
Summary of the method: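 Universal Agilent oligonucleotide arrays, made double-stranded by primer extension, were incubated with 200 nM GST-fused Tbr T-box DNA-binding domain in PBS (pH 7.5). The protein was expressed in BL21 E. coli at 20 °C and purified by glutathione affinity chromatography. After scanning and quantification, the Universal PBM Analysis Suite assigned an enrichment E-score to each ungapped 8-mer, averaged over duplicate arrays.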

Row | Sequence | PBM E-score of 8-mer
1 | AGGATTTA | -0.163 ± 0.011
2 | AGTGTCAT | 0.387 ± 0.0042
3 | AAGATAAA | -0.115 ± 0.086
4 | AAGCGGTA | -0.0518 ± 0.051
5 | ACGCGAGG | 0.14 ± 0.017
6 | CCTCTATC | -0.0172 ± 0.037
7 | ATGACACC | 0.463 ± 0.0098
8 | ACTCCTAG | -0.0368 ± 0.041
9 | GGGGCTGA | -0.1789 ± 0.00037
10 | TCGGAACA | -0.0443 ± 0.0089
11 | AATGGACG | -0.0703 ± 0.005
12 | GAGCGTCC | -0.297 ± 0.038
13 | AGAGTCGC | 0.171 ± 0.022
14 | AAGGGCCT | -0.248 ± 0.0044
15 | AATGTTGG | -0.0727 ± 0.029
16 | GAAACCGC | -0.0261 ± 0.018
17 | ATTTAACG | 0.0554 ± 0.091
18 | CGTAGCCC | -0.296 ± 0.01
19 | ACGTATCT | -0.115 ± 0.011
20 | CCAATGCC | -0.0626 ± 0.014
21 | ATCGATTA | -0.208 ± 0.05
22 | GCACTACA | 0.0737 ± 0.1

Row | Sequence | PBM E-score of 8-mer
23 | AATATCTG | -0.17 ± 0.062
24 | CACTGGGA | -0.0625 ± 0.026
25 | TAGTTCCA | -0.0365 ± 0.003
26 | AATGGTGC | 0.193 ± 0.034
27 | AGGGGGGA | -0.405 ± 0.04
28 | ATTCTTCA | 0.0402 ± 0.067
29 | CGGTACAC | -0.0545 ± 0.01
30 | GACTGATA | -0.014 ± 0.016
31 | AGCTCCGC | -0.233 ± 0.015
32 | ACTAACGC | 0.273 ± 0.012
33 | AACAAGAC | 0.05 ± 0.017
34 | ACTGAACC | -0.0894 ± 0.13
35 | CTGATGTC | -0.235 ± 0.048
36 | GGGCATCA | 0.0391 ± 0.0038
37 | AACGGCGA | -0.141 ± 0.023
38 | ATCTTAAC | 0.105 ± 0.045
39 | CAAAAAGC | 0.111 ± 0.062
40 | CGCGCGGC | 0.107 ± 0.035
41 | ATTGTCCA | 0.075 ± 0.02
42 | AGGTTTAG | -0.0333 ± 0.0097
43 | AACAATTC | -0.054 ± 0.025
44 | CAGGTCTC | -0.0284 ± 0.0014

Row | Sequence | PBM E-score of 8-mer
45 | TATCCCGA | 0.0324 ± 0.026
46 | CCTGGCAC | 0.371 ± 0.019
47 | AATTAGTG | 0.144 ± 0.0053
48 | CTATTAAA | 0.0421 ± 0.049
49 | TCGTTCAA | -0.248 ± 0.022
50 | GAATCCCA | -0.117 ± 0.017
51 | CAGGGCCG | -0.0604 ± 0.0011
52 | AGTATAAC | 0.119 ± 0.067
53 | CGGAGTCA | -0.105 ± 0.039
54 | GGTTAACA | 0.255 ± 0.026
55 | CCCGGCTA | -0.176 ± 0.046
56 | ATTGCTGC | 0.0271 ± 0.024
57 | CAACCCTC | -0.236 ± 0.019
58 | ACCTTAGA | 0.106 ± 0.035
59 | AGAAGCTG | -0.0905 ± 0.062
60 | AGGATGCC | -0.0503 ± 0.089
61 | ACAGATTA | -0.0308 ± 0.028
62 | AGTAGAAC | -0.0647 ± 0.049
63 | ATCATAAC | -0.017 ± 0.035
64 | GGATCTTA | -0.21 ± 0.034
65 | CCAGTAGA | -0.00801 ± 0.084
66 | CTAGAAGC | 0.044 ± 0.043

Row | Sequence | PBM E-score of 8-mer
67 | AGCATTCG | -0.0845 ± 0.034
68 | CGTGGGCC | -0.33 ± 0.015
69 | AGCAAAAT | -0.0655 ± 0.029
70 | CTGGACGA | 0.151 ± 0.016
71 | CGGAACAA | -0.0846 ± 0.066
72 | AAAACGGC | -0.13 ± 0.055
73 | AGTCGGTC | -0.113 ± 0.051
74 | CGGTCTTA | -0.0111 ± 0.035
75 | AATGTTAC | -0.0757 ± 0.051
76 | AGCTTCTC | -0.0998 ± 0.023
77 | GTCACGAA | 0.273 ± 0.028
78 | CGGACAAA | -0.131 ± 0.0074
79 | GGTGGCGA | 0.351 ± 0.0076
80 | CACATACC | 0.242 ± 0.0046
81 | GAACTTAC | -0.0179 ± 0.009
82 | CGATGTGA | 0.228 ± 0.018
83 | ATACCTGG | 0.139 ± 0.025
84 | CAGTGAGA | 0.181 ± 0.028
85 | AACGTTGT | 0.0244 ± 0.055
86 | CGAAGACG | -0.158 ± 0.047
